The list shows a part of the results. The full chains were built here from the parent and the listed change. Values near 0.05 are background.
B1: TEV protease; numbered along this chain (parent)
chain: MGESLFKGPRDYNPISSSICHLTNESDGHTTSLYGIGFGPFIITNKHLFRRNNGTLVVQSLHGVFKVKDTTTLQQHLVDGRDMIIIRMPKDFPPFPQKLKFREPQREERICLVTTNFQTKSMSSMVSDTSCTFPSGDGIFWKHWIQTKDGQCGSPLVSTRDGFIVGIHSASNFTNTNNYFTSVPKNFMELLTNQEAQQWVSGWRLNADSVLWGGHKVFMVKPEEPFQPVKEATQL

Variants of: B1
Experiment: raw area under fraction-flipped curve 0-4 h after induction (AUC4h, not background-subtracted), DNA-recorder readout of cleavage of the substrate (dimensionless); higher = more cleavage of the substrate by the protease variant
Details: temperature: 34 °C; time window: 0-4 h after rhamnose induction
Description: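 In vivo DNA recorder in E. coli TOP10(DE3) ΔrhaA at 34 °C. Each TEVp single-site mutant (parent TEVp 0) is paired with a single-site variant of the 7-mer TEVs (canonical ENLYFQ|S). The substrate sits between flexible linkers in a Bxb1-sfGFP-TEVs-SsrA fusion, so cleavage stabilises Bxb1 and speeds flipping of a recombination array, read by NGS. The value is the raw area under the fraction-flipped curve over 0-4 h after rhamnose induction (AUC4h), with ≥20 reads per time point. It is not background-subtracted; inactive controls average about 0.047.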
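Further: Bxb1 expression induced with 0.2% (w/v) L-rhamnose at OD600 near 0.5, cultures sampled hourly, flipped fraction per protease–substrate barcode pair counted by paired-end Illumina sequencing.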

Row | Variant | area with substrate ANLYFQS | area with substrate CNLYFQS | area with substrate FNLYFQS | area with substrate GNLYFQS | area with substrate HNLYFQS | area with substrate INLYFQS | area with substrate LNLYFQS | area with substrate MNLYFQS | area with substrate NNLYFQS | area with substrate PNLYFQS | area with substrate QNLYFQS | area with substrate SNLYFQS | area with substrate TNLYFQS | area with substrate WNLYFQS | area with substrate YNLYFQS | area with substrate DNLYFQS | area with substrate VNLYFQS | area with substrate KNLYFQS | area with substrate RNLYFQS
1 | P40F | 0.0634 | 0.12 | 0.0586 | 0.072 | 0.0511 | 0.0591 | 0.0576 | 0.0651 | 0.0812 | 0.0671 | 0.0828 | 0.0591 | 0.0631 | 0.0357 | 0.0553 | – | – | – | –
2 | P40K | 0.0848 | 0.0767 | – | 0.0664 | 0.0732 | 0.0618 | – | 0.0632 | 0.0733 | – | – | 0.0495 | 0.07 | 0.0591 | 0.0631 | 0.0846 | 0.0643 | – | –
3 | L48W | 0.0619 | 0.0584 | 0.092 | 0.058 | 0.0659 | – | 0.0598 | 0.0568 | – | 0.0605 | – | – | 0.0729 | 0.0565 | 0.06 | 0.0675 | 0.0564 | 0.0704 | –
4 | L48S | 0.0651 | 0.0628 | – | 0.063 | 0.0538 | 0.0534 | – | 0.0689 | – | 0.0663 | 0.0569 | – | 0.0643 | 0.0582 | – | 0.0668 | – | 0.0653 | –
5 | L48V | 0.0547 | 0.062 | 0.0554 | 0.0529 | 0.0593 | 0.0369 | 0.0542 | 0.0655 | 0.0667 | 0.0611 | 0.0546 | 0.0512 | 0.0781 | 0.056 | 0.0778 | 0.0614 | 0.0713 | 0.0655 | –
6 | L48G | 0.0788 | 0.0686 | 0.0591 | 0.0597 | 0.0602 | 0.0716 | 0.0707 | 0.0544 | – | 0.0638 | – | 0.0661 | 0.0592 | 0.0621 | 0.0637 | 0.0628 | – | 0.0583 | –
7 | L48F | 0.0762 | 0.061 | 0.0626 | – | 0.065 | 0.0715 | 0.0728 | 0.052 | 0.0319 | – | – | – | – | 0.0463 | 0.0501 | – | – | 0.0591 | –
8 | L48M | 0.0379 | 0.0648 | 0.0668 | – | 0.0606 | 0.0657 | – | – | 0.0543 | 0.0613 | – | 0.0674 | 0.0647 | 0.0603 | – | – | 0.0631 | 0.0546 | 0.0582
9 | L48R | 0.0753 | – | 0.062 | – | 0.0571 | 0.0515 | 0.0549 | – | 0.0648 | 0.0589 | 0.0751 | 0.0547 | 0.0571 | 0.0567 | 0.0564 | 0.0554 | – | 0.0685 | –
10 | K46S | 0.0725 | 0.0666 | 0.0443 | – | 0.0618 | 0.076 | 0.0624 | 0.0624 | 0.0664 | 0.0682 | – | 0.0754 | 0.0757 | 0.0645 | 0.0517 | 0.0678 | 0.0845 | 0.063 | –
11 | T23P | 0.0271 | 0.0396 | 0.0235 | 0.0454 | 0.0408 | 0.0365 | 0.0464 | – | 0.047 | 0.0355 | 0.0456 | 0.0454 | 0.0496 | 0.0381 | 0.0424 | 0.0367 | 0.0872 | 0.0418 | –
12 | T44A | 0.0601 | 0.063 | 0.0536 | 0.0625 | 0.0597 | 0.0517 | 0.0612 | – | 0.0599 | 0.0585 | – | 0.0322 | 0.0667 | 0.0587 | 0.0579 | 0.0684 | 0.0517 | 0.0646 | 0.0556
13 | T44F | 0.0506 | 0.0521 | 0.0251 | 0.0451 | 0.0357 | 0.0583 | 0.0491 | – | 0.0516 | 0.0586 | – | – | 0.0555 | 0.0651 | 0.0488 | 0.059 | – | 0.0685 | –
14 | S18C | 0.0535 | 0.0421 | 0.0468 | 0.0697 | 0.0589 | – | 0.0574 | – | 0.0671 | 0.0747 | – | – | 0.0563 | 0.0541 | 0.0752 | 0.074 | 0.0801 | 0.0702 | –
15 | S17W | 0.0774 | 0.0736 | 0.0484 | 0.0533 | 0.0516 | 0.0489 | 0.0526 | 0.0572 | – | 0.0705 | – | 0.0652 | 0.0654 | 0.0567 | 0.0636 | 0.0712 | – | 0.0654 | –
16 | H21P | 0.064 | 0.0488 | 0.0335 | 0.0546 | 0.0506 | – | 0.0473 | – | 0.0544 | 0.0634 | 0.0525 | 0.0264 | 0.0525 | 0.0518 | 0.0491 | 0.0549 | – | 0.0535 | –
17 | N52W | 0.0543 | 0.0622 | 0.064 | – | 0.0485 | 0.0605 | 0.0606 | 0.065 | 0.0684 | 0.0667 | 0.062 | 0.0581 | 0.0597 | 0.0574 | 0.059 | 0.062 | 0.0641 | 0.063 | –
18 | G39A | 0.0557 | 0.0093 | 0.0546 | 0.044 | 0.0701 | 0.0508 | – | 0.0435 | 0.0237 | 0.0356 | – | 0.0527 | 0.0329 | 0.0387 | 0.0614 | 0.0312 | 0.0327 | – | –
19 | T31E | 0.0669 | 0.0587 | 0.0647 | – | 0.0659 | 0.0656 | 0.0717 | 0.0655 | 0.0565 | 0.0629 | – | 0.066 | 0.0664 | 0.0658 | 0.0545 | 0.103 | 0.0534 | – | 0.0515
20 | E25K | 0.1 | 0.0693 | 0.0684 | 0.0695 | 0.073 | 0.0497 | 0.0642 | 0.0632 | 0.0774 | 0.069 | – | 0.0637 | 0.0682 | 0.0639 | 0.0535 | 0.0777 | 0.0664 | 0.0607 | –
21 | T30S | 0.0576 | 0.0673 | 0.0631 | 0.0763 | 0.0569 | 0.0458 | 0.0627 | 0.0672 | 0.0457 | 0.0555 | 0.0697 | 0.0703 | 0.0719 | 0.0608 | – | 0.0737 | 0.0911 | 0.0727 | –
22 | T30C | 0.0578 | 0.072 | 0.066 | – | 0.0642 | 0.0628 | 0.0709 | – | 0.0363 | 0.0663 | 0.0663 | 0.0652 | 0.0628 | 0.0603 | 0.0647 | 0.0776 | 0.0782 | 0.0634 | –
23 | I19R | 0.0423 | 0.0431 | 0.0444 | 0.0386 | 0.0428 | 0.0436 | 0.059 | – | – | 0.0563 | – | 0.0439 | 0.051 | 0.0543 | 0.0404 | 0.0472 | 0.081 | 0.0644 | 0.062

From the supplement of paper PMC12217912
